# The full ranking holds about 33,000 sequences; the median of “E-score (-0.5 to 0.5)” is about -0.032, and the highest 2% start at about 0.36. The list shows a part of the results.
# Target: T1, Sko1 (UniProt Q02100)
# T1 sequence: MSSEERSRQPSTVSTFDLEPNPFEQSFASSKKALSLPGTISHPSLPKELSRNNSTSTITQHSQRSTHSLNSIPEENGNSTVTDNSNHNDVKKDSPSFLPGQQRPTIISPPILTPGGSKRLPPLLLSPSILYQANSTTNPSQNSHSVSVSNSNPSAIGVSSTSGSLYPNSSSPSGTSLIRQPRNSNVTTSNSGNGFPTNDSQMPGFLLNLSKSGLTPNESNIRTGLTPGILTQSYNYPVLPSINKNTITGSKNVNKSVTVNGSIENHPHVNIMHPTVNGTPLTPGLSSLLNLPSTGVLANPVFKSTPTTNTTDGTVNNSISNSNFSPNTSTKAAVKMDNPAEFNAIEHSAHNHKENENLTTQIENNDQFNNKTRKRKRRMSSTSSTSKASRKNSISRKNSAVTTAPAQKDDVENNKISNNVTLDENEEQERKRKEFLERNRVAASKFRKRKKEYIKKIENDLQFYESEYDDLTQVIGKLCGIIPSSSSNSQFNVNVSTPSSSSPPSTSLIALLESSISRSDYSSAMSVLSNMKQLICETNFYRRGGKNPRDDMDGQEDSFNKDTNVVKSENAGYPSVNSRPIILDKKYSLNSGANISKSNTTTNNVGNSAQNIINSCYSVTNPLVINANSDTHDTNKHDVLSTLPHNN
# Experiment: PBM E-score (8-mer binding enrichment) (E-score (-0.5 to 0.5)); higher = stronger / more preferred TF binding; most listed sequences are background and not binding sites
# Settings: protein concentration: 200 nM; construct: GST-full length
# Method in brief: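 Universal all-10-mer Agilent arrays, double-stranded by primer extension on fresh or once-stripped slides, were probed with about 100-200 nM GST-tagged yeast transcription factors made by PURExpress. Fluorescent anti-GST detected bound protein, and masliner normalised the scans. E-scores from the Universal PBM Analysis Suite were given to each ungapped eight-base word pooled with its reverse complement.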
row,Sequence,PBM E-score
1,GGCAGCAA,-0.206
2,CTTCTGCA,0.0202
3,GCGAACGA,0.0197
4,ACACCCTC,-0.189
5,ATGCGACA,0.16
6,GGCCGGCC,-0.32
7,ACAATTTA,0.0364
8,AACGCACG,0.31
9,TCACACAA,0.12
10,GAATCTGA,0.017
11,ACGTCCGA,0.2
12,AGTCTTAC,0.122
13,AGCTTGCA,0.0429
14,AAGTTTGA,-0.0137
15,CACGAGCC,-0.282
16,AATCGTGT,0.0793
17,AAGATGTC,0.0266
18,CTTTCCAA,0.033
19,AAGCACAT,0.0115
20,AACTCGGA,-0.282
21,AGACGTCA,0.484
22,CATGGTGG,-0.224
23,GCAGACCC,-0.359
24,CGTATTCC,0.317
25,CGGCAGCC,-0.384

row,Sequence,PBM E-score
1,AGTCCATA,-0.057
2,AATCTTAC,0.211
3,GATCCGAC,-0.122
4,ACTCGGCT,-0.284
5,AGGACGTA,0.374
6,GGTCGGAA,-0.117
7,AAAACAGG,-0.163
8,CAGTCAAC,-0.244
9,ATGCACAG,-0.00909
10,AGACAACC,-0.16
11,AATGTCAA,0.0308
12,CAGTTTTC,-0.0732
13,AGCCTGAG,-0.218
14,CATTAAGA,-0.00803
15,TATGCAGA,0.0134
16,ACATAAAG,0.185
17,AGCAGCCC,-0.337
18,GGGCTCTA,-0.169
19,CCCATCGA,-0.0167
20,ACAGGTTC,-0.291
21,AAGTAGGA,0.118
22,CGATACCG,-0.121
23,ACTTGCTA,-0.109
24,GTAAGTGA,0.215
25,CGATATGA,0.166

row,Sequence,PBM E-score
1,CTCCTCCC,-0.201
2,AATTGCTA,0.153
3,ACCCCCGT,-0.321
4,CCTTACGC,0.303
5,AATTACTA,0.195
6,CATATTAC,0.313
7,GCTGAAAC,0.0455
8,AGTTGCTG,-0.0248
9,CATACTCC,0.132
10,AAGATACG,0.315
11,CGCATAAG,0.109
12,AATGCTGG,-0.121
13,ACGGGGCA,-0.0579
14,AGACTCGC,-0.259
15,CCCGCGGA,-0.214
16,ATTCTGGG,-0.116
17,AAACCAAG,-0.00877
18,ATGAGTCG,-0.0823
19,GACAGCTA,-0.129
20,ATACAGGC,-0.194
21,CCTGCAAC,-0.0407
22,ATTAAATA,0.288
23,AGATGTAC,-4e-05
24,ATTATCAG,0.0813
25,CGATGAGA,-0.0352

row,Sequence,PBM E-score
1,AGGGTAAC,-0.163
2,CCTATGTA,-0.0157
3,GTATAGAC,0.155
4,AGCAGGTA,-0.194
5,CGCAAACG,0.231
6,CAAACCGG,-0.177
7,ACCAAGGC,-0.197
8,CGGCGCTA,-0.251
9,GCAGATGA,-0.0175
10,AGTGTCCG,-0.00066
11,ATAGTCAC,0.134
12,AGGATATC,-0.103
13,GCTCTGAA,-0.00853
14,ATCCGGGA,-0.295
15,ACGGTAAC,0.169
16,AAGGTCCC,-0.0151
17,CAGACCGA,-0.265
18,CTTGATCA,0.1
19,ACGAATCT,0.255
20,GCCACAAA,0.0745
21,CGATTCAA,-0.0398
22,ATCACACC,-0.0596
23,CATGTGGA,-0.107
24,GGGCTCAC,-0.199
25,AGACGAAC,0.115

row,Sequence,PBM E-score
1,ACCAGGTC,-0.264
2,CTCTACAC,-0.259
3,CAGGACAA,0.0814
4,GAAAATCA,0.121
5,CCGTACGA,0.0901
6,CCGGCCGC,-0.294
7,AGTCATGC,-0.0777
8,CCCACGTA,0.39
9,CTTCACCA,-0.175
10,AGGAAATA,0.163
11,ACACTCAG,-0.0491
12,AATTGTAT,0.0636
13,ATTTTGGA,0.149
14,CACTTCCC,-0.103
15,ACAGTGTC,-0.18
16,TGTCAAAA,0.121
17,CTGAAATC,0.0112
18,CTCTAGGA,-0.335
19,AAAAAAGG,-0.0708
20,AGGAATCA,0.0412
21,AGCCCTGA,-0.127
22,GAGTCGTA,0.116
23,ACTGAATC,-0.0863
24,GGCCCGTA,-0.123
25,AATTCTAT,0.1

row,Sequence,PBM E-score
1,CCTTTGCG,0.128
2,GTTGTGTA,0.0323
3,CAAGAAAG,-0.0549
4,CCACCCCC,-0.379
5,CTTGTATA,-0.0926
6,CCAATCAC,0.0045
7,TCCCGGCA,-0.237
8,TCTAACAA,0.0283
9,AGGAACCA,-0.112
10,ATGTGCTG,-0.0303
11,AGTACTGC,-0.0861
12,GTCTGTGA,0.0518
13,ACACGGCT,-0.222
14,ATACCAAC,0.19
15,AATTGCTG,0.21
16,GCCATGAA,-0.219
17,CATACGCG,0.246
18,CCCTTGCA,-0.229
19,GGAGACGA,-0.0627
20,GTCAGACA,0.0919
21,ATGCGGCC,-0.125
22,CGGCCACC,-0.17
23,TAACCCCA,-0.265
24,GCATCGAC,-0.125
25,CCAATGAC,0.253

row,Sequence,PBM E-score
1,ATCAGCTG,0.0587
2,CCAGGCGA,-0.321
3,GATCGTTA,-0.0704
4,TCCTAAAA,0.132
5,CACCAGAA,-0.0828
6,AGGACACA,0.15
7,GATGACGA,0.474
8,CTTCCGAA,-0.134
9,CATTCCAA,0.189
10,CGCCAGAA,-0.112
11,CTAGAAGA,0.0318
12,ACCGGCCC,-0.23
13,AAGCTCCA,-0.0257
14,TTAGGAAA,-0.0404
15,CGGGTATC,-0.195
16,GCGGTCGA,-0.0383
17,TGGGGCAA,-0.224
18,AGGAATAC,0.0259
19,CATAAAGC,-0.0786
20,ATACACAG,-0.136
21,GGGTTATA,0.0376
22,ATATTTAG,0.226

# Reference: the supplement of paper PMC3334620
